Screen size: about 1,200 compounds; about 10 (0.8%) were called active. Not shown: some 4% with an inconclusive outcome. Calls follow the shape of the dose curve; as a rule, active = well fitted inhibition curve with a large enough effect; inconclusive = small, poorly fitted or top-dose-only effect; inactive = no such curve, though single readings can be large or run the other way. The list shows a part of the results.
% is scaled to controls: 0 for no effect and ±100 for the full control effect; potency is read from the fitted curve at half-maximal effect.

The nature of the assay: qHTS Assay to Find Inhibitors of Chronic Active B-Cell Receptor Signaling: Hit Validation in OCI-Ly3 Assay. The settings on record: OCI-Ly3 IkB-luciferase reporter, Chroma-Glo luminescence, 4 h; series mostly up to 46.1 µM; activity change, negative = inhibition: at the top concentration. The text has this:
Diffuse large B-cell lymphoma (DLBCL) is the most common category of non-Hodgkin lymphoma, with ~20,000 new cases per year in the United States. DLBCL should be regarded as a collection of different neoplasms. Microarray gene expression analysis has defined two principal types of DLBCL, named for their similarity to normal B cell stages or activation states: a germinal center B-cell (GCB) type, and an activated B-cell (ABC) type. In ABC-DLBCL, a constitutive high-level activity of the NF-kappaB family of transcription factors has been observed (1) and NF-kappaB target genes are more highly expressed in ABC primary tumors than in GCB tumors. Functional studies have shown a constitutive high-level activity of the IkappaB (inhibitor of kappa-B) kinase (IKK) complex. […] Further analysis of DLBCL primary tumors for NF-kappaB target gene expression imply that although CARD11 is required for constitutive IKK activity in all ABC-DLBCL lines, mutations in CARD11 may be the root cause of IKK activation only in lines or tumors with such mutations. In other words, CARD11 mutations may explain NF-kappaB activation in only 10% of ABC-DLBCL cases. […] This process has been termed 'chronic active BCR signaling' (CABS). The goal of this screen is to find small-molecule inhibitors of the CABS pathway found in ABC-DLBCL lines using a cell-based assay that measures IkappaBalpa stability, which has already been extensively validated in the OCI-Ly3 line (PubChem AID:445; REF: 4). […] Hits from the primary screen were tested in this selectivity secondary assay. NIH Molecular Libraries Probe Production Network [MLPCN] NIH Chemical Genomics Center [NCGC] MLPCN Grant: R03 DA031086 PI Name: Dr. R. Eric Davis
Cells were seeded in 1536-well plates at 5000 cells/3ul in IMDM medium containing 0.5% FBS, w/o phenol red, L-glutamine, 25 mM HEPES, 3 mg/ml sodium bicarbonate. After centrifugation for 1 min. at 1000 rpm, 23 nl of compounds or DMSO were delivered to each well using a pin tool. Then 1ul 80ng/ml doxycycline was dispensed into white solid 1536-well plates and the plates were incubated at 37C/5% C02 in a cell incubator for 4 hrs. Then 4 ul Chroma-Glo luminescent substrate mix (Promega) was added to each well. The plate was incubated at R.T. for 10-15 min. The plates were measured on a ViewLux plate reader for green luminescence (540/20 nm filter) and red luminescence (618/8 nm filter). The green and red luminescent signals were corrected for red and green luminescence filter overlap using previously determined filter calibration constants (determined using the procedure outlined in the Promega Technical Manual). The %Activity was determined from the ratio of corrected green/red luminescent values. Green luminescent and ratio %Activity was determined by normalizing to the difference in signal between basal cells (0% Activity) and cells incubated with 10 uM of the proteasome inhibitor MG-132 (100% Activity). Red luminescent %Activity was normalized to the difference between red luminesence in basal cells (0%Activity) and zero luminescence (-100% Activity). Concentration-response curves were fitted to the signals arising from the green luminescence (I-kappa-B-alpha-luciferase fusion; IkB-luc) and the red luminescence (unfused luciferase; luc) as well as the calculated ratio. The concentration-effect curves were then classified based on curve quality (r2), response magnitude and degree of measured activity. Compounds were then categorized based on their concentration-response curves for all three datasets (Ikb-luc, luc and ratio).
For orientation: In qHTS, concentration-response curves come from the screen itself.
Take `Cc1ccccc1C(=O)Oc1ccc2ccc(O)cc2c1`: the “activity change, negative = inhibition” value was inactive: -2.12%.

Regarding `COc1ccc(C(=O)N2CCc3cc(OC)c(OC)cc3C2c2ccc(OC)c(OC)c2)cc1` (configuration not stated), the “activity change, negative = inhibition” value was inactive: -0.486%.

As for `CC(/C=C/c1ccccc1)=N\NC(=S)NC(C)C`, the “activity change, negative = inhibition” value was inactive: -1.53%.

In the case of `N=C1SCC(=O)N1c1ncc(Cc2ccccc2Cl)s1`, the “activity change, negative = inhibition” value was inactive: 33.8%.

With `O=C(COc1ccccc1-c1ccccc1)N/N=C/c1cccc2ccccc12`, the “activity change, negative = inhibition” value was inactive: -3.27%.

Turning to `O=C(NN=C1CCCC1)c1n[nH]c2c1CCCC2`, the “activity change, negative = inhibition” value is inactive: -13%.

As to `Cc1cc(NC(=O)CSc2nc3ccccc3c(=O)n2C2CCCC2)no1`, the “activity change, negative = inhibition” value was inactive: -3.58%.

Take `Cc1ccc(C2=NN(C(=O)CSc3nc(N)cc(N)n3)C(c3ccco3)C2)cc1` (configuration not stated): the “activity change, negative = inhibition” value was inactive: 0.0305%.

Take `OC[C@H]1O[C@@H](n2cnc3c(NC4CCCC4)ncnc32)[C@H](O)[C@@H]1O`: the “activity change, negative = inhibition” value is inactive: -1.42%.

For `O=C(N/N=C/c1ccc(Cl)cc1)c1n[nH]c2c1CCCC2`, the “activity change, negative = inhibition” value is inactive: -2.19%.

`COc1cc2c(cc1OC)-c1cc(Nc3ccc(N(C)C)cc3)nc(=O)n1CC2`: the “activity change, negative = inhibition” value was inactive: -1.8%.

Take `Oc1ccccc1N=Nc1ccccc1O`: the “activity change, negative = inhibition” value was inactive: -0.679%.

As to `COC(=O)Nc1nc2ccc(Sc3ccccc3)cc2[nH]1`, the “activity change, negative = inhibition” value was inactive: 1.24%.

Turning to `C=C1C(O)[C@@H]2O[C@]3(CC[C@H](/C=C/C(C)[C@@H]4CC(C)=CC5(O[C@H](C[C@@](C)(O)CO)CCC5O)O4)O3)CC[C@H]2O[C@@H]1C(O)CC(C)[C@H]1OC2(CCCCO2)CCC1C` (some centres not stated), the “activity change, negative = inhibition” value is inactive: -6.02%.

Take `CCn1ncc(C2=NOC(C(=O)NCc3ccccc3)C2)c1C` (configuration not stated): the “activity change, negative = inhibition” value was inactive: -1.31%.

For the compound `Cc1c(CCC(=O)N2CCC[C@H]2C(=O)O)c(=O)oc2cc3oc4c(c3cc12)CCCC4`, the “activity change, negative = inhibition” value was inactive: -0.876%.

As to `O=C(c1ccc(Br)cc1)c1cc([N+](=O)[O-])ccc1N1CCCCC1`, the “activity change, negative = inhibition” value is inactive: -5.32%.

In the case of `COc1ccc(/C=N/Nc2nccnc2Cl)c(OC)c1`, the “activity change, negative = inhibition” value is inactive: -14.9%.

Take `Cc1nn(-c2ccccc2)c(C)c1/C=N/NC(=O)c1cc(-c2cccs2)[nH]n1`: the Potency was active: 18.4 µM.

Turning to `Cc1cccc(OCCCN2C(=O)C(=O)c3cc(C)ccc32)c1`, the “activity change, negative = inhibition” value was inactive: -0.571%.

With `Cc1ccsc1/C=N/NC(=O)c1cc(-c2ccncc2)nc2ccccc12`, the “activity change, negative = inhibition” value is inactive: -5.84%.

`CC(=O)Nc1ccc(S(=O)(=O)N2CCSc3ccccc32)cc1`: the “activity change, negative = inhibition” value is inactive: 0.241%.

For the compound `NC(=S)N=Nc1c(O)n(CCCl)c2ccccc12`, the “activity change, negative = inhibition” value was inactive: -0.383%.

For the compound `CCC(=O)NCc1cc(-c2nn(C)c(=O)c3ccccc23)ccc1OC`, the “activity change, negative = inhibition” value was inactive: -3.24%.

`CCCc1nc([N+](=O)[O-])c(S(=O)(=O)c2ccccc2)n1CC(C)C`: the “activity change, negative = inhibition” value is inactive: -25.8%.

On to `O=C(/C=C\c1ccccc1)Oc1cccc2cccnc12`, for which the “activity change, negative = inhibition” value is inactive: -0.0971%.

Turning to `O=C(OCC(O)CO)c1ccccc1Nc1ccnc2cc(Cl)ccc12` (configuration not stated), the “activity change, negative = inhibition” value is inactive: -4.64%.

As to `CCN(CC)S(=O)(=O)c1ccc(N/N=C(\C)c2ccc(OC)cc2O)nc1`, the “activity change, negative = inhibition” value was inactive: -0.838%.

As for `CCc1ccccc1NC(=S)N=Nc1c(O)n(C)c2ccc(S(=O)(=O)N3CCOCC3)cc12`, the “activity change, negative = inhibition” value is inactive: -9.04%.

Take `Cc1ccc(C2OCC3(CO)COC(c4ccc(C)cc4)N23)cc1` (configuration not stated): the “activity change, negative = inhibition” value is inactive: -0.266%.

With `COc1cc2c(cc1OC)-c1cc(Nc3ccccc3)nc(=O)n1CC2`, the “activity change, negative = inhibition” value was inactive: -0.124%.

Turning to `Fc1ccc(/C=N/NC2=Nc3cccc4cccc2c34)cc1`, the “activity change, negative = inhibition” value is inactive: -1.29%.

Turning to `O=Cc1ccccc1OCCOc1ccccc1C=O`, the “activity change, negative = inhibition” value was inactive: -2.1%.

Consider `CCCCC[C@H](O)/C=C/C1=C(CCCCCCC(=O)O)C(=O)CC1`, for which the “activity change, negative = inhibition” value was inactive: -0.832%.

For `Cc1ccc(C(=O)c2cc([N+](=O)[O-])ccc2N2CCCCC2)cc1`, the “activity change, negative = inhibition” value is inactive: -5.17%.

Take `COc1ccc(C(=O)/C=C2/c3ccccc3CC(C)(C)N2C)cc1`: the “activity change, negative = inhibition” value was inactive: -1.76%.

On to `CC(=O)N1CC(=O)N=C1SCC(=O)Nc1nc(C)c(-c2ccccc2)s1`, for which the “activity change, negative = inhibition” value is inactive: -4.44%.

As for `COC(=O)C1C(O)=C(C=Nc2cccc3ccccc23)C(=O)CC1(C)C` (configuration not stated), the “activity change, negative = inhibition” value was inactive: -0.573%.

As for `Cc1cc(C)c2ccc(/C=N/O)nc2c1O`, the “activity change, negative = inhibition” value was inactive: -3.1%.

As for `Cc1ccc2[nH]c(-c3cccc(F)c3)cc(=O)c2c1`, the “activity change, negative = inhibition” value is inactive: -3.54%.

Consider `CCOC(=O)CSC1=C(C#N)C(c2ccc(C)o2)CC(=O)N1` (configuration not stated), for which the “activity change, negative = inhibition” value is inactive: -2.72%.

On to `COCCn1nnnc1C(C(C)C)N(Cc1ccccc1)Cc1cc2cc(OC)ccc2[nH]c1=O` (configuration not stated), for which the “activity change, negative = inhibition” value was inactive: -1.07%.

As for `COc1cc(OC)cc(C(=O)NCC(=O)N2CC=C(c3ccccc3)CC2)c1`, the “activity change, negative = inhibition” value is inactive: -2.46%.

In the case of `COC(=O)C1=C(C)NC(C)=C(C(=O)OC)C1c1ccc(N(C)C)cc1`, the “activity change, negative = inhibition” value is inactive: -0.707%.

With `Cc1cccc(N(C)S(=O)(=O)c2ccc(-c3cc(C)no3)s2)c1`, the “activity change, negative = inhibition” value is inactive: -6.23%.

In the case of `COc1cc2nc(=S)n3[nH]c(CCn4nc(C)cc4C)nc3c2cc1OC`, the “activity change, negative = inhibition” value was inactive: -0.711%.

For `CCCC(=O)Nc1ccc2c(c1)nc(CN1CCN(C(=O)OCC)CC1)n2CC`, the “activity change, negative = inhibition” value is inactive: 0.0124%.

In the case of `OC(C#Cc1ccccn1)c1cccs1` (configuration not stated), the “activity change, negative = inhibition” value is inactive: -1.31%.

Turning to `Cc1cccc(NC(=S)NNC(=O)CCn2cc(C)cn2)c1`, the “activity change, negative = inhibition” value is inactive: -0.56%.

As to `CCOc1ccc(NCc2ccccc2OCc2cccc(F)c2)cc1`, the “activity change, negative = inhibition” value is inactive: -3.97%.

As to `C[C@]12CCC(=O)C=C1CC[C@@H]1[C@@H]2[C@@H](O)C[C@@]2(C)[C@H]1CC[C@]2(O)C(=O)CO`, the “activity change, negative = inhibition” value was inactive: -0.458%.

With `CCCCC1C(=O)CC[C@H]2[C@@H]1CC(=O)[C@@H]2C/C=C\CCCC(=O)O` (some centres not stated), the “activity change, negative = inhibition” value was inactive: -5.28%.

(Values after PubChem BioAssay AID651567 (National Center for Advancing Translational Sciences (NCATS), 2012).)
